The labels stand for the following.
T1: UNK ZnF1-3 (human, UniProt Q9C0B0 31-174)
T1 sequence: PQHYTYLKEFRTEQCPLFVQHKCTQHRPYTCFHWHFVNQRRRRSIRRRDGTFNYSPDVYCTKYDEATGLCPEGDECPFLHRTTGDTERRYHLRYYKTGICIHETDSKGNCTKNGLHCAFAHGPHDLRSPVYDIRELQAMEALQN

B1: chr6:97339032:97339033:-_ENSG00000123545_ENST00000316149|hu_hu|FALSE|FALSE (ssRNA)
RNA: GGGAGUUCUACAGUCCGACGAUCUCUUCAUUUUGAUCGUAUUGCUUUCUUGUCUUCAGGAGGGAAGAUUUCGACUUCAAAAGUAACAAAAUAUUUAAGAAGAGAAUUCACAUCUUUCUGUUCUAACUGGUAUUCCUGCAUUAUCAACAGAGGAUUGAGCAUCA
B2: chr18:13845789:13845790:-_ENSMUSG00000024420_ENSMUST00000025288|mus_mus|FALSE|FALSE (ssRNA)
RNA: GGGAGUUCUACAGUCCGACGAUCAGAACCAUGGGGCAGUGACCCUGCGUUGUGAUGCUGGAGAUGUGGCUGUCACAGGCUAGUCCAUUGGUGACAAGGGGUCACACAUCCAUCAGUCCAGGUUGCAUUUUUCUUACCUCAAAGCAACAGAGGAUUGAGCAUCA
B3: 21681251_21699202_537_CDS_ENSG00000092199_ENST00000553300|human|control|control (ssRNA)
RNA: GGGAGUUCUACAGUCCGACGAUCUACACGUGCUGGGUAACUGUACAUCCUAUCAUAAUAGUCCCGUUGAAAGUCAUAGUCCAAGUCAAAAGAGGAGCCGUACAUCUCCGCUGCAGAUCGUUUCACACCUGCUUUUCCUCGGUUCAACAGAGGAUUGAGCAUCA
B4: 69550059_69550179_5424_3pUTR_ENSG00000198380_ENST00000361060|human|control|control (ssRNA)
RNA: GGGAGUUCUACAGUCCGACGAUCUGCCUUCCAAUGAACCUAGUCUUUGCUAGUGAUGAGUCCAUCUGGGGACAAAUACUGCUUUAAAGAUGAUGUAAUUUUCAAUGCCAACCACAGUGACUUUCCCAUAAUAGGUAUUAAUAACAACAGAGGAUUGAGCAUCA
B5: chr9:91930108:91930109:+_ENSG00000123975_ENST00000314355|hu_hu|FALSE|FALSE (ssRNA)
RNA: GGGAGUUCUACAGUCCGACGAUCACCAAGUCUCCUCCACUCCUCUUCAGACAUCAGAUGAGUUUUAGGUACUUGUUUGGAAAGUUCUCUGGGUAACAUAACAUGCCGGUACUCGUAGUGUUCGUCGAAGUACUUGUCCGAGUACAACAGAGGAUUGAGCAUCA
B6: chr1:229634031:229634032:-_ENSG00000069248_ENST00000261396|hu_hu|FALSE|FALSE (ssRNA)
RNA: GGGAGUUCUACAGUCCGACGAUCCUGAUGAAUCUUUCCUGAGCUCUCAGGUAUCAACCGAAUUAGUUGGCUUCCUGAUGAAGACAAAAUAAAACUUCCUCCCUGCACUGCUGUUAGGAAACUGUAAGUCUUAUCACCUCCCGACAACAGAGGAUUGAGCAUCA
B7: 126726007_126726127_2122_CDS_ENSMUSG00000043872_ENSMUST00000106102|mouse|control|control (ssRNA)
RNA: GGGAGUUCUACAGUCCGACGAUCGUGUAGUGCCUCGCGGAGCUCCUUCACCUCCUUACAGAAGCUAAUCACCGCUAACUCCAAAAAAUGGGCGUGACAAUGCACAUAGAGAGCUCUUGGCUCUUCCUUCUUGAAUUCUGCUACCAACAGAGGAUUGAGCAUCA
B8: 51746606_51747526_668_3pUTR_ENSMUSG00000008140_ENSMUST00000118515|mouse|control|control (ssRNA)
RNA: GGGAGUUCUACAGUCCGACGAUCGGAUGAGGUGCCAGUAUUUGGCAAAGAAAGACUUCUGCUCCUGUGGGUUCUUGGCCUUCUGGGCCUGCUCCAUCUCCAGGCGCUCAAUGAAGGCUGCAGUCUCGGGGCCUGGAGCAGUGCCAACAGAGGAUUGAGCAUCA
B9: chr11:87793471:87793472:-_ENSMUSG00000020483_ENSMUST00000020775|mus_mus|mus_mus_mus_hu_False|18_18 (ssRNA)
RNA: GGGAGUUCUACAGUCCGACGAUCUGGACUUGAAAAUAAAAGAAUAAGCUGGAUCCCCCACCCCCCCACAUUGUCAACCCUACACGAGAGUUUUGAAGGCGACUCAUGAAAAUCAGCCUCAAUUGGCGCAAUGACCACCCCACCCAACAGAGGAUUGAGCAUCA
B10: chr7:136912400:136912401:-_ENSG00000105894_ENST00000348225|hu_hu|motif|central (ssRNA)
RNA: GGGAGUUCUACAGUCCGACGAUCUUUUGUUUAGUAUAUAUUUUUCUCAAUUGGGAAAAAAAUCUAGGUGAAAAAAAUUACCGGACAAGAGAAGUAGUUUACAUAGUCAUAACAUUUAAAUUGCUGCCCAAAAAAUGUAAAAAACAACAGAGGAUUGAGCAUCA
B11: chr7:156476592:156476593:-_ENSG00000105983_ENST00000359422|hu_hu|motif|central (ssRNA)
RNA: GGGAGUUCUACAGUCCGACGAUCUCUACAGAAGAAUGCGCUGUUCUAUAUGUCUGUAAGGAAUCUGCACUUAACUGGAAACGGCAGGGUCCAUCAGAAAGUUAAAUUUAAAAAAGAUCAGCCAUAGCCAAGUUCUUCGUAGAUCAACAGAGGAUUGAGCAUCA
B12: 73995968_73997693_220_CDS_ENSMUSG00000074247_ENSMUST00000124745|mouse|control|control (ssRNA)
RNA: GGGAGUUCUACAGUCCGACGAUCCGUCUUUUCUGUCACAAUGAUCUGUUCUGACGGGUACUCUCGGGUCGGCAGGUAUACUGAGGGACGGCGGUUCGAGGCCUUGCACACAGAGUCCGCGUGGAACCUGCUGAAGUUGCUCUUCAACAGAGGAUUGAGCAUCA
B13: chr1:180459674:180459675:+_ENSMUSG00000026494_ENSMUST00000161017|mus_hu|motif|central (ssRNA)
RNA: GGGAGUUCUACAGUCCGACGAUCGCCUCUCUUUAUUCCCAGCUACCGAAUUCAUGGUGGCUUUUCCAGAGGAGAGUAUCGGAAGGUUCCACCGACGCUACAUCCAGAAGGUCCUCCAACCCAGAAGCGUCCCCCGGCUGCAGGCAACAGAGGAUUGAGCAUCA
B14: 44573525_44588634_111_5pUTR_ENSG00000138078_ENST00000409411|human|control|control (ssRNA)
RNA: GGGAGUUCUACAGUCCGACGAUCGAUCGCAAAUUGAGAGAAUCAGUCCGGCUCUGGACACAAACCAGUGAAGGCAGGCCGGAGAACCUGAAGCUCUCAGAGGGGAGCAGGUGUCACCGCAGGCAAGUCCAGCCGAAGUCUGCGCAACAGAGGAUUGAGCAUCA

This is one part of the list.

This experiment has as its target T1, UNK ZnF1-3. As to the kind of experiment: nsRBNS (natural sequence RNA bind-n-seq); RBNS binding buffer (assumed for nsRBNS): 25 mM Tris pH 7.5, 150 mM KCl, 3 mM MgCl2, 0.01% Triton X-100, 500 ug/ml BSA, 20 U/ml SUPERase-In, 4 C; UNK is unkempt and MSI1 is Musashi-1; names of the RNAs are library labels; protein concentration not given here; high values mean tight binding.
On to B1, for which the binding signal amounted to 0.856 enrichment R.

On to B2, for which the binding signal worked out at 0.901 enrichment R. As for B3, the binding signal worked out at 1.09 enrichment R. Turning to B4, the binding signal was 0.966 enrichment R. In turn, B5 displayed a binding signal of 0.551 enrichment R. In turn, B6 returned a binding signal of 1 enrichment R.

With B7, the binding signal came to 0.858 enrichment R.

As for B8, the binding signal turned out to be 0.914 enrichment R. B9 had a binding signal of 1.7 enrichment R. With B10, the binding signal turned out to be 1.7 enrichment R. As for B11, the binding signal was found to be 1.71 enrichment R. On to B12, for which the binding signal is 0.792 enrichment R. In turn, B13 yielded a binding signal of 1.1 enrichment R.

B14 yielded a binding signal of 0.744 enrichment R.

For the origin of these results see PMC12136788.
